# Laboratory results published in PubChem BioAssay (Tox21).
# Values joined by “and” are separate entries in the source; they are usually repeats but may differ in a detail not shown here. Equal entries are not always repeated. Inconclusive means that the source gave no clear call. Such entries were picked first, then a sample of the others. A potency beside an inconclusive call is a rough fit, not a confirmed value. Where a structure was tested more than once in an assay, its records may differ in their call. Active and inactive are the calls of the source. Calls follow the shape of the dose curve; as a rule, active = well fitted cell-killing curve with a large enough effect in the repeat runs; inconclusive = weak or mixed curves, or effect the other way; inactive = flat fitted curve, though single readings scatter.
# Assay: qHTS assay to identify small molecule agonists of the sonic hedgehog signaling (Shh) pathway - cell viability counter screen (AID 1259366); also: nearly all actives have a fitted effect of over 50% in size
# Details: NIH/3T3 Gli1-Luc viability, CellTiter-Fluor, 24 h; series mostly up to 92.4 µM; viability change, negative = cytotoxic: at the top concentration
# Excerpt: National Center for Advancing Translational Sciences [NCATS]
# NIH Chemical Genomics Center [NCGC]
# U.S. Environmental Protection Agency [EPA]
# National Institutes of Environmental Health Sciences [NIEHS]
# National Toxicology Program [NTP]
# U.S. Food and Drug Administration [FDA]
# The sonic hedgehog (Shh) pathway is essential for normal embryonic development. Dysregulation of the Shh pathway can cause severe developmental defects in organs. Therefore chemicals that interfere with the pathway are potential developmental toxicants. A cell line designated 3T3Gli1-Luc (DMB/OARSA/CFSAN/FDA, Laurel, MD), a NIH/3T3 derived clone containing stably integrated Gli1-Luc reporter is used to detect chemical interference of the Shh pathway, by changes in the expression of the firefly Luc gene under the control of the Gli1 transcriptional response element. This cell line was used to screen Tox21 libraries for identifying and prioritizing the potential developmental toxicants that interfere Shh pathway. The cytotoxicity of the compounds was tested in parallel by measuring the cell viability using CellTiter-Fluor assay system (Promega, Madison, WI) in the same wells.
# Tox21 Assay Protocol Summary:
# 3T3 Gli1-Luc cells were dispensed at 2,000 per well in 5uL of culture medium into white solid bottom 1536-well plates (Greiner Bio-One, Monroe, NC) using a Multidrop Combi (Thermo Scientific, Waltham, MA) dispenser. The assay plates were incubated at 37 C and 5% CO2 for 4hr, and then 23nL of compounds dissolved in DMSO and positive control were transferred using a Pintool station (Wako, San Diego, CA). The assay plates were incubated at 37C and 5% CO2 for 24hr. For viability read, after 23hr of compound treatment, 1uL of CellTiter-Fluor reagent (Promega Corporation, Madison, WI) was added to each well of the assay plates using Flying Reagent Dispenser (FRD, Aurora Discovery, San Diego, CA) and incubated the assay plates at 37C for 1hr. The fluorescence signal was quantified using a ViewLux plate reader (Perkin Elmer, Shelton, CT).
# % is scaled to controls: 0 for no effect and ±100 for the full control effect; potency is read from the fitted curve at half-maximal effect; tags tell the direction and shape of the fitted curve.
Structure (SMILES),Potency,"viability change, negative = cytotoxic"
CC1(C)C(C(=O)OC(C#N)c2cccc(Oc3ccccc3)c2)C1(C)C (stereo not given),inactive,–
C[C@H]1CC[C@@H]2[C@@H](C)[C@H]3[C@H](C[C@H]4[C@@H]5CC=C6CC(O[C@@H]7O[C@H](CO)[C@H](O)[C@H](O[C@@H]8O[C@H](CO)[C@@H](O)[C@H](O)[C@H]8O)[C@H]7O[C@H]7O[C@@H](C)[C@H](O)[C@@H](O)[C@H]7O)CC[C@]6(C)[C@H]5CC[C@]34C)N2C1 (stereo not given in full),"inconclusive: 11.2 µM [cytotoxic, full curve, poor fit]",–
CCOC(=O)C(O)(c1ccc(Cl)cc1)c1ccc(Cl)cc1,"inconclusive: 69.3 µM [cytotoxic, single point] and inconclusive: 68.6 µM [cytotoxic, single point]",–
Nc1ccc([N+](=O)[O-])cc1,active: 30.6 µM,–
C=CC(=O)OCC(COC(=O)C=C)(COC(=O)C=C)COC(=O)C=C,active: 5.45 µM,–
O=C/C(Cl)=C(/Cl)C(=O)O,inconclusive: 68.5 µM [cytotoxic] and inconclusive: 68.6 µM [cytotoxic],–
CCCCCCCCCCCCn1cc[n+](C)c1,"inconclusive: 60.8 µM [cytotoxic, partial curve, poor fit]",–
Oc1ccc(-c2ccccc2)cc1,"inconclusive: 33.9 µM [cytotoxic, partial curve] and inconclusive: 68.6 µM [cytotoxic]",–
COP(=S)(OC)Oc1ccc([N+](=O)[O-])cc1,inactive,–
ClC1=C(Cl)[C@]2(Cl)[C@@H]3[C@@H]4C[C@@H]([C@H]5O[C@@H]45)[C@@H]3[C@@]1(Cl)C2(Cl)Cl,inconclusive: 68.6 µM [cytotoxic],–
CCOP(=O)(OCC)Oc1ccc([N+](=O)[O-])cc1,"inconclusive: 55.1 µM [cytotoxic, partial curve] and inconclusive: 34.4 µM [cytotoxic, partial curve]",–
CCCCCCCCCCCCCCn1cc[n+](C)c1,"active: 17.3 µM and active: 24.1 µM and inconclusive: 48.5 µM [cytotoxic, partial curve, poor fit]",–
S=C=Nc1cccc2ccccc12,active: 53.9 µM,–
Brc1ccc(Oc2ccccc2)cc1,"inconclusive: 70.3 µM [cytotoxic, single point]",–
N#Cc1c2ccccc2cc2ccccc12,inconclusive: 17.2 µM,–
NC1CCC(CC2CCC(N)CC2)CC1 (stereo not given),"inconclusive: 13.4 µM [cytotoxic, partial curve]",–
C[C@H]1CCCC(=O)CCC/C=C/c2cc(O)cc(O)c2C(=O)O1,"inconclusive: 17.8 µM [cytotoxic, partial curve]",–
CN(C)C(=S)S,active: 12.4 µM and active: 6.07 µM and active: 4.86 µM,–
NC(=O)O,–,inactive: 9.32%
c1cc(OCC2CO2)ccc1Cc1ccc(OCC2CO2)cc1 (stereo not given),"inconclusive: 68.9 µM [cytotoxic, single point]",–

Structure (SMILES),Potency,"viability change, negative = cytotoxic"
CC(C)CC(C)Nc1ccc(Nc2ccccc2)cc1 (stereo not given),active: 26.8 µM,–
CC(C)NC(=O)N1CC(=O)N(c2cc(Cl)cc(Cl)c2)C1=O,active: 48.6 µM,–
ClC1=C(Cl)[C@]2(Cl)[C@@H]3[C@@H](Cl)[C@H]4O[C@H]4[C@@H]3C1(Cl)C2(Cl)Cl,–,inactive: -17.9%
N#Cc1sc2c(=O)c3ccccc3c(=O)c=2sc1C#N,active: 8.63 µM,–
OCC(c1ccc(Cl)cc1)c1ccc(Cl)cc1,"inconclusive: 61.1 µM [cytotoxic, single point]",–
O=[N+]([O-])c1cc(C(F)(F)F)c(Cl)c([N+](=O)[O-])c1Cl,active: 13.7 µM,–
C=C(Cl)CSC(=S)N(CC)CC,–,inactive: 1.56%
CC(c1ccc(O)cc1)(c1ccc(O)cc1)c1ccc(O)cc1,active: 61.1 µM,–
CCCCCCCCCC(CC)c1ccc(S(=O)(=O)O)cc1 (stereo not given),inconclusive: 54.5 µM [cytotoxic],–
C=CC1(C)OC(=O)N(c2cc(Cl)cc(Cl)c2)C1=O (stereo not given),"inconclusive: 68.2 µM [cytotoxic, single point]",–
COc1cc(OC)c(OC)cc1C=O,"inconclusive: 66.5 µM [cytotoxic, single point]",–
O=[N+]([O-])c1ccc(Nc2ccccc2)cc1,"inconclusive: 54.9 µM [cytotoxic, partial curve] and inconclusive: 54.5 µM [cytotoxic, single point]",–
O=P(Oc1ccccc1)(Oc1ccccc1)Oc1ccccc1,"inconclusive: 34.2 µM [cytotoxic, partial curve, poor fit]",–
[CH3][Sn]([CH3])([Cl])[Cl],"inconclusive: 69.7 µM [cytotoxic, single point]",–
S=C(SSC(=S)N1CCCCC1)N1CCCCC1,active: 2.66 µM,–
COc1cccc(C(=O)CCN[C@@H](C)[C@H](O)c2ccccc2)c1,"inconclusive: 29.8 µM [cytotoxic, single point]",–
c1ccc2c(c1)cc1ccc3cccc4ccc2c1c34,"inconclusive: 31.2 µM [rising, partial curve]",–
COC1=CC(=O)O[C@@H](CCc2ccccc2)C1,"inconclusive: 35.8 µM [rising, partial curve]",–
CCc1cc(OC)c(C[C@H](C)N)cc1OC,"inconclusive: 80.2 µM [cytotoxic, partial curve, poor fit]",–
O=P(OCC(Br)CBr)(OCC(Br)CBr)OCC(Br)CBr (stereo not given),"inconclusive: 61.9 µM [cytotoxic, partial curve] and inconclusive: 58 µM [cytotoxic, partial curve, poor fit]",–
